Out of some 39,000 compounds screened, about 220 (0.56%) showed activity. This is one part of the list.
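Further: static incubation at 37 °C against the wild-type strain, values averaged over two biological replicates.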

The experiment deals with Escherichia coli K-12 BW25113. The experiment in a line: relative growth (OD600 normalised to plate interquartile mean) (fraction); higher = less growth inhibition, active = 0.2 or less. The conditions noted are these: 50 µM; LB; incubation time: overnight (16-24 h).
For `C[C@@H]1CN([C@@H](C)CO)S(=O)(=O)c2ccc(C#CCN(C)C)cc2O[C@@H]1CN(C)Cc1ccccc1F`, the relative growth is inactive: 1.03.
The result for `CC(C)NC(=O)N(C)C[C@@H]1Oc2ccc(NC(=O)Cc3ccccc3)cc2CC(=O)N([C@@H](C)CO)C[C@@H]1C` reads inactive: 1.01; that for `C[C@H](CO)N1C[C@H](C)[C@H](CN(C)S(=O)(=O)c2ccc(F)cc2)Oc2ccc(NC(=O)Cn3cnnn3)cc2C1=O`, inactive: 0.995.
Turning to `C[C@H]1CN([C@@H](C)CO)S(=O)(=O)c2ccc(C#CCN(C)C)cc2O[C@H]1CN(C)C(=O)C1CCCCC1`, the relative growth was inactive: 1.01.
As for `CCCC#Cc1cnc2c(c1)C(=O)N([C@H](C)CO)C[C@H](C)[C@H](CN(C)S(=O)(=O)c1cn(C)cn1)O2`, the relative growth was inactive: 1.01.
Turning to `COc1ccc(S(=O)(=O)N[C@@H]2C=C[C@H](CC(=O)N3CCN(c4ccccc4)CC3)O[C@H]2CO)cc1`, the relative growth is inactive: 1.01.
The value for `COc1ccc(S(=O)(=O)Nc2ccc3c(c2)C(=O)N([C@H](C)CO)C[C@H](C)[C@H](CN(C)C(=O)CCC(F)(F)F)OCCCC[C@H](C)O3)cc1` was inactive: 0.965; that for `C[C@@H]1CCCCO[C@H](CN(C)S(=O)(=O)c2ccc(F)cc2)[C@H](C)CN([C@@H](C)CO)C(=O)c2cc(NC(=O)Nc3ccc4c(c3)OCO4)ccc2O1` was inactive: 1; that for `Cc1ccc(S(=O)(=O)N2C[C@H](O)COC[C@@H]3O[C@H](CC(=O)N[C@@H]4CCN(Cc5ccccc5)C4)CC[C@H]32)cc1` was inactive: 1.01.
The value for `O=C(C[C@H]1C[C@H]2c3cc(NC(=O)Cc4ccncc4)ccc3O[C@H]2[C@@H](CO)O1)NCc1ccc2c(c1)OCO2` was inactive: 0.992; that for `COc1ccc2c3c(n(c2c1)C)[C@H](CO)N(C[C@]13CN(C1)C(=O)c1ccncc1)C(=O)C1CCCCC1` was inactive: 1.01.
The result for `C[C@@H]1CCCCO[C@@H](CN(C)C(=O)Nc2cccc3ccccc23)[C@@H](C)CN([C@H](C)CO)C(=O)c2cc(NC(=O)c3ccccc3)ccc2O1` reads inactive: 1.01; that for `COc1ccc(-c2cnc3c(c2)C(=O)N([C@H](C)CO)C[C@@H](C)[C@@H](CN(C)S(=O)(=O)c2ccc(OC)cc2)O3)cc1`, inactive: 1.01; that for `Cc1cccnc1[C@H](c1ccc(F)cc1)N(C)C(=O)C1CCN(CCOc2ccc(Cl)cc2Cl)CC1`, inactive: 0.951.
In the case of `COc1ccc(NC(=O)N(C)C[C@@H]2Oc3ccc(NC(=O)Cn4cnnn4)cc3C(=O)N([C@@H](C)CO)C[C@H]2C)cc1`, the relative growth was inactive: 1.01.
Take `Cl.NCCCC(N)C(=O)O` (stereo unspecified): the relative growth is inactive: 0.979.

The record behind these values is the supplement of paper PMC9446081.
